Measured values taken from paper PMC7819943, “Rice protein-binding microarrays: a tool to detect cis-acting elements near promoter regions in rice”.
The list shows a part of the results.

The sequences below were run against T1, OsWOX13 (Oryza sativa, UniProt Q5QMM3 1-267) (assay: protein-binding microarray (RPBM); PBS, 2% BSA, 51.3 ng/ul salmon testes DNA, 50 uM zinc acetate, 200 nM TF, 25 C, 1 h; high values mean tight binding). Conditions: protein: recombinant; tags: N-terminal polyhistidine and DsRed monomer fusion (pET32a); label: CyDye5-dUTP incorporated in the synthesized complementary strand; 3' TTTTT single-stranded linker to array surface; dsDNA, one strand shown.
T1 sequence: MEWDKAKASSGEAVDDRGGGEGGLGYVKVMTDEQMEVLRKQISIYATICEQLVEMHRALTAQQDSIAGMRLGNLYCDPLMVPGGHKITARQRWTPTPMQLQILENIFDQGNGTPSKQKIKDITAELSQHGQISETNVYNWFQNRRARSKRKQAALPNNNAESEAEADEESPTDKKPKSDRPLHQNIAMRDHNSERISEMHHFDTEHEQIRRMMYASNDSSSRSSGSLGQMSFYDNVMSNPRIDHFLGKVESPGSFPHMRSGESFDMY
Summary of the method: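 Using Ni–NTA, transcription factors fused N-terminally to polyhistidine and DsRed were purified after expression in E. coli BL21-CodonPlus. These were incubated at 200 nM with a blocked, double-stranded custom Agilent array for 1 h at 25 °C in a buffer containing 50 µM zinc acetate, and the array was washed. The binding signal is per-feature fluorescence intensity (arbitrary units) on an Axon 4000B scanner.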

Row | Sequence | binding signal
1 | TTGTTAAATAGATTAATCTGATATTTTAGAACAACTTTCACGGAGTCACCTAGTGCAG | 12800 fluorescence intensity (a.u.)
2 | ATTTTGTGATTTCGTATCATTGTATTGGTTGCAGGTCATTCGGAGTCACCTAGTGCAG | 6590 fluorescence intensity (a.u.)
3 | CCACATTAATATTGATATTAATGAATCTAGACTATATCTCCGGAGTCACCTAGTGCAG | 6470 fluorescence intensity (a.u.)
4 | GTGTAAATTAAATTTGGCGTTTTGTATTTGTGGAGGGACACGGAGTCACCTAGTGCAG | 23800 fluorescence intensity (a.u.)
5 | ATTAATTTTACTCGGCTAATGGCATGCATATTTCACGGAACGGAGTCACCTAGTGCAG | 15000 fluorescence intensity (a.u.)
6 | GCGCTGATGAGCATTTTGTTGAAGACAACATTGAGGTGCCCGGAGTCACCTAGTGCAG | 19100 fluorescence intensity (a.u.)
7 | CATAATAATTCTGTTAATTTATCGTTGGGGTAGTTTATTACGGAGTCACCTAGTGCAG | 19000 fluorescence intensity (a.u.)
8 | GTTATTTTGATTAGGGTGCAATTAAGCTGCCCAAACCTTCCGGAGTCACCTAGTGCAG | 22000 fluorescence intensity (a.u.)
9 | CTGCAGATAACGCTTGATGATTTACGACCAACTGCAAATTCGGAGTCACCTAGTGCAG | 4510 fluorescence intensity (a.u.)
10 | GAAATCAATTATGTAGCAGTGCGATACATACAAATTTTGACGGAGTCACCTAGTGCAG | 10900 fluorescence intensity (a.u.)
11 | GATTTGATGAATGAAGTATTTAGTAGTAGAAGGACTTGAGCGGAGTCACCTAGTGCAG | 3400 fluorescence intensity (a.u.)
12 | CTCCTTCTGATTTGGGCGCGGTGGATTTGTGAATGGCAGCCGGAGTCACCTAGTGCAG | 5220 fluorescence intensity (a.u.)
13 | GTGACAATTAAAGATTTGCCACTAGACCCCACATGTCATACGGAGTCACCTAGTGCAG | 4820 fluorescence intensity (a.u.)
14 | AATTTACGTAATTATAATTTATTTTGTTATGAGTTGTTTTCGGAGTCACCTAGTGCAG | 29500 fluorescence intensity (a.u.)
15 | AAGGCGATTAGATTAGCGAGCACCGCACACCCGAACGCCACGGAGTCACCTAGTGCAG | 5830 fluorescence intensity (a.u.)
16 | AGTGAAACGGTGTCAATTACTGCCTTGTCACTTACTGATGCGGAGTCACCTAGTGCAG | 9520 fluorescence intensity (a.u.)
17 | TTTGTGAATTTGGTAATAATTTATTCAAATTCAATATAAACGGAGTCACCTAGTGCAG | 3510 fluorescence intensity (a.u.)
18 | CACCTGATTTTCAAAATTCAAGCAAATGCAGCTTCTGATGCGGAGTCACCTAGTGCAG | 4770 fluorescence intensity (a.u.)
19 | ACCATTGATGGTCCCAATTTAAAATATTTGGCCGAATCTTCGGAGTCACCTAGTGCAG | 3840 fluorescence intensity (a.u.)
20 | ATCAATTAATCATGTTGTGTTTATCCACCATTGTCGACTGCGGAGTCACCTAGTGCAG | 16800 fluorescence intensity (a.u.)
21 | TTTACTAATAAAATAATTAGGAGTTATTTTGCATTTATATCGGAGTCACCTAGTGCAG | 3880 fluorescence intensity (a.u.)
22 | TGATAACTGTGTTGATGTTAACAGGCCATCGATGTGTATCCGGAGTCACCTAGTGCAG | 9200 fluorescence intensity (a.u.)
23 | TTCCTTATAAATTAGATTGGTATGGTTCCTTGATACTAACCGGAGTCACCTAGTGCAG | 16100 fluorescence intensity (a.u.)
